# Experimental data as given in the supplement of paper PMC12067093, “Discovery and optimisation of a covalent ligand for TRIM25 and its application to targeted protein ubiquitination” (Chemical Science, 2025).
# The full data set covers some 21,000 targets. This sample favours those with the largest changes.
# Compound: Cc1cc(ccc1-c1ccccc1)C(=O)N1CCCN(CC1)C(=O)CCl [compound 10]
# Test: probe-labelled cysteine peptide fold change vs DMSO (competition) (log2 fold change); higher = less target engagement (more negative = stronger competition)
# Conditions: 10 µM; THP-1; incubation time: 4 h
# 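Also: competitive profiling in live THP-1 cells: cysteine peptides tagged with an iodoacetamide desthiobiotin (IA-DTB) probe, intensity after compound treatment relative to DMSO-treated cells.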
# Chain of UniProt Q15154 (Q15154 whole entry, looked up): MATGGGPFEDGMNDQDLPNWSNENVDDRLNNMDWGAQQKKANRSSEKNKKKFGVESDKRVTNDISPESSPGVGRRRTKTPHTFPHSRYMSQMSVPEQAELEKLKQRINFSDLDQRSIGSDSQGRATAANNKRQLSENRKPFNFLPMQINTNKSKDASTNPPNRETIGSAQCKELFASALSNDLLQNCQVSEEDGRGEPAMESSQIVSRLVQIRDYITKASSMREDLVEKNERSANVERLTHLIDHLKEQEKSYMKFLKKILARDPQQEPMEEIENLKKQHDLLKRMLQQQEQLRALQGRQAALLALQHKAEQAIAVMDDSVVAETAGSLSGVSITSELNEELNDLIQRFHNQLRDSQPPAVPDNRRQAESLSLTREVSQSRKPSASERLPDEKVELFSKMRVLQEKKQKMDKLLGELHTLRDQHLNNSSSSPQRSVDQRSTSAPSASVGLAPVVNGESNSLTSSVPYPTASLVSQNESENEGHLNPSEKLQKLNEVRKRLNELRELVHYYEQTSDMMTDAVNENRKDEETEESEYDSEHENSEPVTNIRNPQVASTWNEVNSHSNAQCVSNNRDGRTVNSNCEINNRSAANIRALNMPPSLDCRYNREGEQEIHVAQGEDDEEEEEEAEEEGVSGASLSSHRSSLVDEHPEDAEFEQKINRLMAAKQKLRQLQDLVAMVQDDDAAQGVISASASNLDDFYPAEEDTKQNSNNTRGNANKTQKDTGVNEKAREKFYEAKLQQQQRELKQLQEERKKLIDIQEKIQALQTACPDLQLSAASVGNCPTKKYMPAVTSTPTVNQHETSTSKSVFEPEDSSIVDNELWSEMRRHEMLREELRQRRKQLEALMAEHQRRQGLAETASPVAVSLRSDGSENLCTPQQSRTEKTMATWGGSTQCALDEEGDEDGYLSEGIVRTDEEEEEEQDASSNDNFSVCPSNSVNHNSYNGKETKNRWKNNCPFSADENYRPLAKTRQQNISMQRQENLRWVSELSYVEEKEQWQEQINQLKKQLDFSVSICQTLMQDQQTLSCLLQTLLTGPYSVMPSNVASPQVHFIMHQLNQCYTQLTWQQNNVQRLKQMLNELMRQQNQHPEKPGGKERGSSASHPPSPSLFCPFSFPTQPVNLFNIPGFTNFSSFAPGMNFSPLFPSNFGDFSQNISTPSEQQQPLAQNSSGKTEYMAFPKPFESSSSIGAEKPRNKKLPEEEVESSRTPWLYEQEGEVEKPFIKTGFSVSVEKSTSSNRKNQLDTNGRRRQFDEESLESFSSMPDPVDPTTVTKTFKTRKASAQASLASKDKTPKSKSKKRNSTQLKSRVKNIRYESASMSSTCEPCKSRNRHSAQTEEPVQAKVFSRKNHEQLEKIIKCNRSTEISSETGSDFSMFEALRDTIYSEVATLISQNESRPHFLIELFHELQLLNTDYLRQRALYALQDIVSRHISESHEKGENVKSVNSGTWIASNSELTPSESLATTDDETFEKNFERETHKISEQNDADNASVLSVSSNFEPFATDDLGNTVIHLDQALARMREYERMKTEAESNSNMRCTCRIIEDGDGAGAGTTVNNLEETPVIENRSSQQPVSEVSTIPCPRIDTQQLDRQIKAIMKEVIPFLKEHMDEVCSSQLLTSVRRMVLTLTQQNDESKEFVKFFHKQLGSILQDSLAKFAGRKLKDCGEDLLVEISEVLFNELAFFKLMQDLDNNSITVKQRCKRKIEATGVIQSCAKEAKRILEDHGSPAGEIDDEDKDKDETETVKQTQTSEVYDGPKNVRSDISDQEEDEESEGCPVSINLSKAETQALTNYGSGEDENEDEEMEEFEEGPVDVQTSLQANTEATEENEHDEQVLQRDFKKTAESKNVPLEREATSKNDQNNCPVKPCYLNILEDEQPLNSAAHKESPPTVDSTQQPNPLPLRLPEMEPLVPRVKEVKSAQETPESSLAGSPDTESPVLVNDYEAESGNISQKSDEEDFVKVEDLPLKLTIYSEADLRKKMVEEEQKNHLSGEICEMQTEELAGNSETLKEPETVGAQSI
# Chain of UniProt A6NDG6 (A6NDG6 whole entry, looked up): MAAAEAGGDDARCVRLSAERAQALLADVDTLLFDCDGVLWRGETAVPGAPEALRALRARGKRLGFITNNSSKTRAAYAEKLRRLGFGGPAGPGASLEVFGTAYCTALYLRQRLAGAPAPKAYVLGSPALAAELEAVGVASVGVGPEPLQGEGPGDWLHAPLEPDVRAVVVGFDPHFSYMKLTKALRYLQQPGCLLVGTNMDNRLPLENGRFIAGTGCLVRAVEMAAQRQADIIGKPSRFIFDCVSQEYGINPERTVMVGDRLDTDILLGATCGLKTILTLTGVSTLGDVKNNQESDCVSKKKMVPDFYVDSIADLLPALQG
# Chain of UniProt P30041 (P30041 whole entry, looked up): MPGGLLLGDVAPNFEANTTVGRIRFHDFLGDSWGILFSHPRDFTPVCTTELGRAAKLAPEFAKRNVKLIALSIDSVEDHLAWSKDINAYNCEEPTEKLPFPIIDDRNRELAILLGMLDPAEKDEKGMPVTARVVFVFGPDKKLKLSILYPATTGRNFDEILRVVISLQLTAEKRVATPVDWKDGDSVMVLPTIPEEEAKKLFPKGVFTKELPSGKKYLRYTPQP
# Chain of UniProt P14618 (P14618 whole entry, looked up): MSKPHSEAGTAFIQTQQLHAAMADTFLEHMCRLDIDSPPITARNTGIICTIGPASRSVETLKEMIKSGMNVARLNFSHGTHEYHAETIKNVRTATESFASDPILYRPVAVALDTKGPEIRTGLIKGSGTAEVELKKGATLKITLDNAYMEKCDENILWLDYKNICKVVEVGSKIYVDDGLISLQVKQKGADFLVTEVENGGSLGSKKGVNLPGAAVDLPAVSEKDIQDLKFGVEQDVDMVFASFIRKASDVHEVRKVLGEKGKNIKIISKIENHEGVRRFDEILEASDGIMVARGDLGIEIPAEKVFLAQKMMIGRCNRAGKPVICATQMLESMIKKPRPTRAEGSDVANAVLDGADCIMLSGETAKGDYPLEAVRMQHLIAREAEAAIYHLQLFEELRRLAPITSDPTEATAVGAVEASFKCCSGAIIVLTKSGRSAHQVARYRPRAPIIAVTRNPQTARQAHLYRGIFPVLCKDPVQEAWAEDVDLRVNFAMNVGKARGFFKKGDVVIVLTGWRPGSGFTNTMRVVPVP
# Chain of UniProt P23284 (P23284 whole entry, looked up): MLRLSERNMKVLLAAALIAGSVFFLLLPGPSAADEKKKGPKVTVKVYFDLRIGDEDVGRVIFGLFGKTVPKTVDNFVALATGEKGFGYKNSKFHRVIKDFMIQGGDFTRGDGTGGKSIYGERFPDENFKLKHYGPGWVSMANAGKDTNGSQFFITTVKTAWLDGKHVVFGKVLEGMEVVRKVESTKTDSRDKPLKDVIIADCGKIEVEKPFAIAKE
# Chain of UniProt P46020 (P46020 whole entry, looked up): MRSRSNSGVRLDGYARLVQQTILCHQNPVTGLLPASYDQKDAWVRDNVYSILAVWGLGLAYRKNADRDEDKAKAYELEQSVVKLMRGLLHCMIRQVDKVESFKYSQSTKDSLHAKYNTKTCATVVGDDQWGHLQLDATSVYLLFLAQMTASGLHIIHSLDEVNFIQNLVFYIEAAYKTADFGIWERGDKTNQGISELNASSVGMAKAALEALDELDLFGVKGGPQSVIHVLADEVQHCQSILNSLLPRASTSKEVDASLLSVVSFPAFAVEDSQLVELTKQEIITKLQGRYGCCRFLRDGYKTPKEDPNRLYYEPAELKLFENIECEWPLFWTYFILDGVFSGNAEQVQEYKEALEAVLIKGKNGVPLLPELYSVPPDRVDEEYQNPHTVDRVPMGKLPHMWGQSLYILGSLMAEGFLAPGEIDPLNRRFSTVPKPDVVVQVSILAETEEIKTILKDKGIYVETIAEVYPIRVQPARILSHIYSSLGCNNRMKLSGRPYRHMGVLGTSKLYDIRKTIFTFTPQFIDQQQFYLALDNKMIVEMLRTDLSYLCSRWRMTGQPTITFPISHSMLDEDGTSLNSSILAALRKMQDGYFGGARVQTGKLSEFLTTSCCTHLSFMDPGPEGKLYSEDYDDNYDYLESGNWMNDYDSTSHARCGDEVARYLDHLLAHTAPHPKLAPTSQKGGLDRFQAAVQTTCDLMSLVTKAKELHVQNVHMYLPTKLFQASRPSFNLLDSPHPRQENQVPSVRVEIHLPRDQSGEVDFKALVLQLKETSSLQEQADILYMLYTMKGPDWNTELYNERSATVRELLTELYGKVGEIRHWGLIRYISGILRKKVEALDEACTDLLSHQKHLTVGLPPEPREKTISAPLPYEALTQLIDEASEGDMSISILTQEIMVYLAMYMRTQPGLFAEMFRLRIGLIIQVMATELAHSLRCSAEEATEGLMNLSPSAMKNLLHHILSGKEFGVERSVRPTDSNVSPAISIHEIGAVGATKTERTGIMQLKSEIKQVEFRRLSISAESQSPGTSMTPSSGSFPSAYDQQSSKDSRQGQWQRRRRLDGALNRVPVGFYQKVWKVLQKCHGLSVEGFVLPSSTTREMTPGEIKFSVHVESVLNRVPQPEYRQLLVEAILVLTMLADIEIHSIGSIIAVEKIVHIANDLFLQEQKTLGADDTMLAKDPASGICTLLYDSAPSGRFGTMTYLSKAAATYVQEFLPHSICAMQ
# Chain of UniProt P12955 (P12955 whole entry, looked up): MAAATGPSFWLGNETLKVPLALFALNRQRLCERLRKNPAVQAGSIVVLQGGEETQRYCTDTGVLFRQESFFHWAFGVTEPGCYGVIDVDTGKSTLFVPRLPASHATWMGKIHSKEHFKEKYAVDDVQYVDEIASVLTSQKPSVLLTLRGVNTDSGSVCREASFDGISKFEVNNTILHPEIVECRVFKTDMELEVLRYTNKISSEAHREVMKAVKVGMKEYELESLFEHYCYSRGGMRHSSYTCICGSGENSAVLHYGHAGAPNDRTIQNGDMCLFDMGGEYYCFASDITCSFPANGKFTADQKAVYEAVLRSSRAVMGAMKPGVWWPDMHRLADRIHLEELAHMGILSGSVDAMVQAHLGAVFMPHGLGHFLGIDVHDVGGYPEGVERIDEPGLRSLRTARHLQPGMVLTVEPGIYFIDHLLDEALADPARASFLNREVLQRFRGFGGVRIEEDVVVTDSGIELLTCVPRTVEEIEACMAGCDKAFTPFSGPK
row,Target,probe-labelled cysteine peptide fold change
1,PHKA1_P46020_91_GLLHCMIR (UniProt P46020),0.123
2,PPM1F_P49593_315_IEALGGFVSHMDCWR (UniProt P49593),0.0343
3,PLAUR_Q03405_293_SGCNHPDLDVQYR (UniProt Q03405),-0.304
4,POLR1B_Q9H9Y6_103_EANVYPAECR (UniProt Q9H9Y6),-0.197
5,PDCD6IP_Q8WUM4_512_ECYQSHR (UniProt Q8WUM4),-0.437
6,PPP4C_P60510_130_QITQVYGFYDECLR<|>PPP2CB_P62714_133_QITQVYGFYDECLR<|>PPP2CA_P67775_133_QITQVYGFYDECLR (UniProt P67775+P62714+P60510),0.232
7,PMM1_Q92871_145_SCTLEER (UniProt Q92871),-0.16
8,PMM2_O15305_9_AAPGPALCLFDVDGTLTAPR (UniProt O15305),0.0884
9,PLA2G15_Q8NCC3_371_SALQCQAWQSR (UniProt Q8NCC3),0.0131
10,PEPD_P12955_230_EYELESLFEHYCYSR (UniProt P12955),0.0749
11,PLIN3_O60664_39_VASMPLISSTCDMVSAAYASTK (UniProt O60664),0.0565
12,PLPBP_O94903_15_AGSMSAELGVGCALR (UniProt O94903),-0.217
13,PPP2R5D_Q14738_17_CTAKPSSSGK (UniProt Q14738),-0.207
14,PIK3CD_O00329_416_KADCPIAWANLMLFDYK (UniProt O00329),-0.0154
15,PKM_P14618_326_PVICATQMLESMIK (UniProt P14618),-0.25
16,PCM1_Q15154_1779_SDISDQEEDEESEGCPVSINLSK (UniProt Q15154),-0.382
17,PHAX_Q9H814_51_AFQNTATACAPVSHYR (UniProt Q9H814),-0.182
18,PML_P29590_227_CDISAEIQQR (UniProt P29590),-0.0553
19,PLCB3_Q01970_193_RVETALESCGLK (UniProt Q01970),-0.0214
20,POLR1A_O95602_880_ACMPFGLHR (UniProt O95602),0.0335

row,Target,probe-labelled cysteine peptide fold change
1,PHPT1_Q9NRX4_71_QGCDCECLGGGR (UniProt Q9NRX4),0.169
2,PPP4C_P60510_266_CGNVAAILELDEHLQK (UniProt P60510),0.0329
3,PPIG_Q13427_33_VVFELFSDVCPK (UniProt Q13427),0.155
4,PREP_P48147_352_SNFLVLCYLHDVK (UniProt P48147),0.222
5,PNN_Q9H307_249_MCPATQK (UniProt Q9H307),-0.399
6,POLRMT_O00411_591_LLAEMLVQATQMPCSLDKPHR (UniProt O00411),-0.45
7,PPP1CC_P36873_127_GNHECASINR<|>PPP1CA_P62140_127_GNHECASINR (UniProt P62140+P36873),-0.0251
8,PDS5B_Q9NTI5_1069_LYTVCDVAMNIIMSK (UniProt Q9NTI5),-0.0609
9,PLXNB2_O15031_112_LVECGSLFK (UniProt O15031),-0.122
10,PLCB2_Q00722_296_GQLSPEGMVWFLCGPENSVLAQDK (UniProt Q00722),0.119
11,PFKL_P17858_630_CHDYYTTEFLYNLYSSEGK (UniProt P17858),-0.0345
12,PFKP_Q01813_123_GITNLCVIGGDGSLTGANLFR (UniProt Q01813),-0.126
13,POLRMT_O00411_413_VCVVSVEKPTLPSK (UniProt O00411),0.19
14,PGP_A6NDG6_272_TVMVGDRLDTDILLGATCGLK (UniProt A6NDG6),0.0484
15,PDS5A_Q29RF7_532_QPTSEANCSAMFGK (UniProt Q29RF7),-0.362
16,PRDX6_P30041_91_DINAYNCEEPTEK (UniProt P30041),-0.219
17,PEX11B_O96011_153_LLMEQESSACSR (UniProt O96011),-0.232
18,PIAS2_O75928_346_VSLMCPLGK (UniProt O75928),0.0643
19,PPIB_P23284_202_DVIIADCGKIEVEKPFAIAK (UniProt P23284),-0.622
20,PFAS_O15067_270_FCDNSSAIQGK (UniProt O15067),-3.92

# Same assay, conditions: 50 µM; THP-1; incubation time: 4 h
row,Target,probe-labelled cysteine peptide fold change
1,PHKA1_P46020_91_GLLHCMIR (UniProt P46020),0.0144
2,PPM1F_P49593_315_IEALGGFVSHMDCWR (UniProt P49593),0.104
3,PLAUR_Q03405_293_SGCNHPDLDVQYR (UniProt Q03405),-0.418
4,POLR1B_Q9H9Y6_103_EANVYPAECR (UniProt Q9H9Y6),0.15
5,PDCD6IP_Q8WUM4_512_ECYQSHR (UniProt Q8WUM4),-1.11
6,PPP4C_P60510_130_QITQVYGFYDECLR<|>PPP2CB_P62714_133_QITQVYGFYDECLR<|>PPP2CA_P67775_133_QITQVYGFYDECLR (UniProt P67775+P62714+P60510),0.371
7,PMM1_Q92871_145_SCTLEER (UniProt Q92871),0.0348
8,PMM2_O15305_9_AAPGPALCLFDVDGTLTAPR (UniProt O15305),-0.0452
9,PLA2G15_Q8NCC3_371_SALQCQAWQSR (UniProt Q8NCC3),0.0452
10,PEPD_P12955_230_EYELESLFEHYCYSR (UniProt P12955),-0.0205
11,PLIN3_O60664_39_VASMPLISSTCDMVSAAYASTK (UniProt O60664),-0.288
12,PLPBP_O94903_15_AGSMSAELGVGCALR (UniProt O94903),-0.942
13,PPP2R5D_Q14738_17_CTAKPSSSGK (UniProt Q14738),-1.72
14,PIK3CD_O00329_416_KADCPIAWANLMLFDYK (UniProt O00329),-0.108
15,PKM_P14618_326_PVICATQMLESMIK (UniProt P14618),0.00777
16,PCM1_Q15154_1779_SDISDQEEDEESEGCPVSINLSK (UniProt Q15154),-0.502
17,PHAX_Q9H814_51_AFQNTATACAPVSHYR (UniProt Q9H814),-0.271
18,PML_P29590_227_CDISAEIQQR (UniProt P29590),0.0385
19,PLCB3_Q01970_193_RVETALESCGLK (UniProt Q01970),0.112
20,POLR1A_O95602_880_ACMPFGLHR (UniProt O95602),0.0428

row,Target,probe-labelled cysteine peptide fold change
1,PHPT1_Q9NRX4_71_QGCDCECLGGGR (UniProt Q9NRX4),0.21
2,PPP4C_P60510_266_CGNVAAILELDEHLQK (UniProt P60510),-0.316
3,PPIG_Q13427_33_VVFELFSDVCPK (UniProt Q13427),-0.397
4,PREP_P48147_352_SNFLVLCYLHDVK (UniProt P48147),0.265
5,PNN_Q9H307_249_MCPATQK (UniProt Q9H307),-2.94
6,POLRMT_O00411_591_LLAEMLVQATQMPCSLDKPHR (UniProt O00411),-1.55
7,PPP1CC_P36873_127_GNHECASINR<|>PPP1CA_P62140_127_GNHECASINR (UniProt P62140+P36873),0.0252
8,PDS5B_Q9NTI5_1069_LYTVCDVAMNIIMSK (UniProt Q9NTI5),-0.136
9,PLXNB2_O15031_112_LVECGSLFK (UniProt O15031),-0.138
10,PLCB2_Q00722_296_GQLSPEGMVWFLCGPENSVLAQDK (UniProt Q00722),0.27
11,PFKL_P17858_630_CHDYYTTEFLYNLYSSEGK (UniProt P17858),-0.0915
12,PFKP_Q01813_123_GITNLCVIGGDGSLTGANLFR (UniProt Q01813),0.34
13,POLRMT_O00411_413_VCVVSVEKPTLPSK (UniProt O00411),-0.636
14,PGP_A6NDG6_272_TVMVGDRLDTDILLGATCGLK (UniProt A6NDG6),0.0355
15,PDS5A_Q29RF7_532_QPTSEANCSAMFGK (UniProt Q29RF7),-1.84
16,PRDX6_P30041_91_DINAYNCEEPTEK (UniProt P30041),0.0432
17,PEX11B_O96011_153_LLMEQESSACSR (UniProt O96011),-1.5
18,PIAS2_O75928_346_VSLMCPLGK (UniProt O75928),-0.43
19,PPIB_P23284_202_DVIIADCGKIEVEKPFAIAK (UniProt P23284),-1.16
20,PFAS_O15067_270_FCDNSSAIQGK (UniProt O15067),-3.29
